# According to PubChem BioAssay AID1508642 (National Center for Advancing Translational Sciences (NCATS), 2021):
# Among all 43,000 compounds or so, about 200 (0.47%) were called active. About 12% were inconclusive and are not listed. Calls follow the shape of the dose curve; as a rule, active = well fitted cell-killing curve with a large enough effect; inconclusive = small, poorly fitted or top-dose-only effect, or effect the other way; inactive = flat fitted curve, though single readings scatter. This is one part of the list.
# Assay: Cell viability qHTS assay in S16 Pmp22-F2sN cells; also: nearly all actives have a fitted effect of over 65% in size
# Conditions: S16 Pmp22-F2sN Schwann cells (luciferase reporters placed in the Pmp22 gene) viability, CellTiter-Glo, 24 h; series mostly up to 57.5 µM; activity change, negative = cytotoxicity: at the top concentration
# Method in brief: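 Luminescence from CellTiter-Glo, read by CCD camera after a 15 min room-temperature incubation, served as the viability signal. Reporter Schwann cells (S16 Pmp22-F2sN) had been treated with pin-transferred compounds for 24 h at 37C.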
# % is scaled to controls: 0 for no effect and ±100 for the full control effect; potency is read from the fitted curve at half-maximal effect.
Compound,"activity change, negative = cytotoxicity",Potency
CCc1cccc(NC(=O)CCc2c(C)nc3c(c2C)c(=O)n(C)c(=O)n3C)c1,inactive: 8.76%,–
Cc1ccc(CNC(=O)CCSCc2ccccc2F)cc1,inactive: -0.334%,–
O=C(NCc1cccnc1)c1nn(-c2ccccc2F)nc1CO,inactive: 1.19%,–
COc1ccccc1NC(=O)Cn1c(=O)n(-c2ccc(C)cc2)c(=O)c2ccc(C(=O)NCc3ccco3)cc21,inactive: 4.8%,–
CCOCCCNC(=O)c1ccc(NC(=O)N2CCCCc3ccccc32)cc1,inactive: -18.6%,–
Cc1c(NC(=O)c2ccc(Cl)cc2)cc(C(C)C)c(O)c1S(=O)(=O)c1ccc(Cl)cc1,inactive: -9%,–
COc1ccccc1N1CCN(c2ccc(=O)n(CC(=O)Nc3ccc(F)c(F)c3)n2)CC1,inactive: 1.1%,–
Cc1ccc(NC(=O)c2cccc(N3CCCS3(=O)=O)c2)cc1,inactive: 18.9%,–
COc1ccc(NC(=O)C2=C(C)Nc3nc(CCCO)nn3C2c2ccc(O)cc2)cc1 (stereo not given),inactive: 5.75%,–
Cc1ccc(C)c(S(=O)(=O)c2nnn3c2nc(N2CCOCC2)c2sccc23)c1,inactive: 3.23%,–
COCCCNC(=O)C(=O)NCC(c1ccc2c(c1)OCO2)N1CCOCC1 (stereo not given),inactive: -1.69%,–
CCN1C(=O)c2ccccc2S(=O)c2ccc(C(=O)NCc3ccc(F)cc3)cc21 (stereo not given),inactive: 4.41%,–
CCOc1ccc(C(c2c(O)cc(C)n(CCOC)c2=O)N2CCN(c3ccccc3F)CC2)cc1 (stereo not given),inactive: 9.06%,–
CC(C)N(Cc1ccccc1)c1ncnc2c1nnn2C,inactive: -4.31%,–
CCOC(=O)c1cc(-c2ccc(OC)c(S(=O)(=O)Nc3ccc(OC)cc3OC)c2)on1,inactive: -6.54%,–
Cc1ccc(CNC(=O)c2nnc(Cc3cccc(F)c3)o2)cc1,inactive: -5.24%,–
COc1ccccc1-c1nnc(SCCOc2ccccc2C)o1,inactive: 16.6%,–
CC(C)c1ccc(S(=O)(=O)c2cnc(SCC(=O)Nc3cccc(C(F)(F)F)c3)nc2N)cc1,inactive: 20.4%,–
CCc1cccc(CC)c1NS(=O)(=O)c1ccc2c(c1)CCN2C(=O)C1CC1,inactive: 5.66%,–
COc1ccc(N2CC(C(=O)Nc3ccc(NC(C)=O)cc3)CC2=O)cc1 (stereo not given),inactive: 8.5%,–
COC(=O)c1sccc1S(=O)(=O)N1CCN(c2ccccc2OC)CC1,inactive: -1.31%,–
O=C(c1ccc2c(c1)N(Cc1ccc(F)cc1)C(=O)c1ccccc1S2=O)N1CCOCC1 (stereo not given),inactive: 1.41%,–
CCN(c1ccccc1)S(=O)(=O)c1ccc(NC(=O)c2cc(=O)c3cc(C)ccc3o2)cc1,inactive: -0.517%,–
COc1cc(C(=O)Nc2nc3c(s2)Cc2c(Br)ccc(OC)c2-3)cc(OC)c1OC,–,active: 25.1 µM

Compound,"activity change, negative = cytotoxicity",Potency
CCC(Sc1nc2ccccc2c2nc(CCc3c(C)n[nH]c3C)nn12)C(=O)Nc1ccc(OC)cc1 (stereo not given),inactive: 3.26%,–
O=C(Nc1nnc(N2CCCCCC2)s1)Nc1ccccc1C(F)(F)F,inactive: 0.247%,–
O=C(OCC1CCCO1)c1ccc2c(c1)N(Cc1cccc(Cl)c1)C(=O)c1ccccc1S2(=O)=O (stereo not given),inactive: -1.29%,–
Cc1ccc(NC(=O)NCCOCCn2c(=O)oc3ccccc32)cc1F,inactive: 9.62%,–
COC(=O)c1c(C)sc(-c2c(-c3ccc4c(c3)OCCO4)[nH]c3[nH]c(=O)[nH]c(=O)c23)c1O,inactive: -9.27%,–
CCOc1ccc(-c2cc3nc(C4CCN(C(=O)OC(C)(C)C)CC4)c(C(=O)Nc4ccc(C)cc4Cl)cn3n2)cc1,inactive: 7.5%,–
O=S(=O)(c1ccc(Br)cc1)c1nnn2c1nc(Nc1cccc(C(F)(F)F)c1)c1sccc12,inactive: -5.23%,–
CN1CCSc2ccc(C(=O)NCc3ccccc3F)cc21,inactive: -15.8%,–
Cc1cc(C)c2c(n1)nn1c(C)c(CCC(=O)NCc3ccccc3Cl)c(C)nc21,inactive: 2.75%,–
COc1ccccc1CCNC(=O)Cc1c(C)c2cc3c(C(C)(C)C)coc3c(C)c2oc1=O,inactive: 1.39%,–
COc1ccc(CCNC(=O)c2ccc(-n3c(C)cc4c3CCCC4)cc2)cc1OC,inactive: -25.4%,–
CCCc1cc(=O)[nH]c(SCc2nc(-c3ccc(C)cc3)no2)n1,inactive: 0.493%,–
Cc1cccc(NC(=O)Cn2cnc(S(=O)(=O)N3CCCC3)c2)c1C,inactive: 1.24%,–
CCCSc1ncc(Cl)c(C(=O)Nc2c(C(=O)Nc3ccccc3)oc3ccccc23)n1,inactive: -9.21%,–
COc1ccc(N2CCN(S(=O)(=O)CCNC(=O)COc3cccc(OC)c3)CC2)cc1,inactive: 2.46%,–
CCN(C(=O)CCNC(=O)Cn1cnc2ccccc2c1=O)c1cccc(Cl)c1,inactive: 21.9%,–
COc1cccc(NC(=O)C(=O)NCCc2csc(-c3ccc(C)cc3)n2)c1,inactive: 2.28%,–
CCCn1cc(S(=O)(=O)c2ccc(C)cc2)c(=O)c2cc(OC)c(OC)cc21,inactive: -17.6%,–
COc1ccc(C2=C(C)C(N3CCC(C(=O)Nc4cc(C)ccc4C)CC3)=NS2(=O)=O)cc1,inactive: 3.89%,–
CSc1ncc(C(=O)NCc2ccc(Cl)cc2)c(C(F)(F)F)n1,inactive: -0.961%,–
CCn1c(CN2CCCCC2)nc2cc(NC(=O)c3ccccc3[N+](=O)[O-])ccc21,inactive: -7.34%,–
CCOC(=O)CSc1nc(-c2ccccc2)cc(C(F)(F)F)c1C#N,inactive: 20.7%,–
Cc1nn(-c2ccccc2)c(OC(=O)c2ccc(F)cc2)c1S(=O)(=O)c1ccccc1,inactive: 13.2%,–
COc1cccc(N2CCN(C(=O)c3cc4c(=O)n(Cc5cccs5)ccc4nc3C)CC2)c1,inactive: 5.73%,–

Compound,"activity change, negative = cytotoxicity",Potency
Cc1ccc(CNC(=O)Cn2ncc3c([nH]c4ccc(C)cc43)c2=O)cc1,inactive: 7.93%,–
COC(=O)c1ccc(Cl)cc1NC(=O)NCc1c(-n2cccc2)sc2c1CCCC2,inactive: -4.7%,–
O=C(Nc1cccc2cccnc12)c1cccc2ccccc12,inactive: 1.69%,–
CCOC(=O)c1ccc(NC(=O)c2csc3c2CCCC3)cc1,inactive: 22.6%,–
CCOc1ccc(C(=O)Nc2ccc(C(=O)OCc3cc(=O)n4ccsc4n3)cc2)cc1,inactive: 22.6%,–
CCCCC(=O)Nc1cc2nn(-c3ccc(OCC)cc3)nc2cc1C,inactive: 4.25%,–
Cc1cccc(C)c1Nc1c(-c2cccs2)nc2ncccn12,inactive: 11.1%,–
Cn1c(=O)c2c(SCC(=O)NCC3CCCO3)nc(-c3cccc(F)c3)nc2n(C)c1=O (stereo not given),inactive: 1.42%,–
Cc1cccc(OCCSc2nc3ccc(NC(=O)c4cccs4)cc3s2)c1,inactive: 7.67%,–
Cc1ccc(OCC(=O)Nc2cc(-c3nc4ccccc4[nH]3)ccc2C)c(C)c1,inactive: 9.77%,–
Cc1cccc(Cn2cc(S(=O)(=O)c3ccc(Cl)cc3)c(=O)c3cc4c(cc32)OCO4)c1,inactive: -4.81%,–
CC(=O)c1ccc(NC(=O)c2ccc(NC(=O)CCS(=O)(=O)c3cccs3)cc2)cc1,inactive: 15.2%,–
O=C(Nc1ccc2nc(SCC(=O)N3CCCC3)sc2c1)c1ccc(Br)cc1,inactive: 1.9%,–
Cc1cccc(OCC(=O)OCc2cc(=O)n3nc(-c4cccs4)sc3n2)c1,inactive: -14.5%,–
O=C(C1CC1)N1CCc2cc(Br)cc(S(=O)(=O)N3CCN(c4cccc(Cl)c4)CC3)c21,inactive: -3.88%,–
Cc1ccc2nc(COc3cccc(NC(=O)COc4ccccc4F)c3)cc(=O)n2c1,inactive: 11.2%,–
CCOC(=O)c1cc(-c2ccccc2)n(-c2cccc(C(=O)Nc3cccc(C)c3)c2)c1C,inactive: -4.56%,–
COC(=O)c1ccccc1NC(=O)Cn1c(=O)nc(-c2ccccc2)c2cc(Cl)ccc21,inactive: 5.26%,–
CCc1nn(Cc2cccc(F)c2)c(=O)c2cc3cc(C)ccc3n12,inactive: -16.1%,–
Cc1ccc(-n2ncc(C(=O)N3CCN(c4ccccn4)CC3)c2C2CCN(C(=O)OC(C)(C)C)CC2)cc1,inactive: 13.3%,–
CCC(C)NC(=O)Cn1c(=O)n(-c2ccc(Cl)c(Cl)c2)c(=O)c2c(C)c(C(=O)N(CC)CC)sc21 (stereo not given),inactive: -2.76%,–
O=S(=O)(c1ccccc1)c1nc(-c2cccs2)oc1SCc1ccccc1Cl,inactive: 2.29%,–
CCOc1ccccc1NC(=O)CSc1nc2c([nH]c3ccccc32)c(=O)n1-c1ccccc1,inactive: 5.9%,–
O=C(CC1NCCNC1=O)Nc1ccccc1F (stereo not given),inactive: -1.23%,–

Compound,"activity change, negative = cytotoxicity",Potency
CCOC(=O)c1c(-c2ccc(C)cc2)csc1NC(=O)c1cc(=O)c2cc(Cl)ccc2o1,inactive: 7.14%,–
Cc1ccc(Cl)cc1N1CCN(C(=O)c2cc3c(=O)n(C)c4ccccc4c3s2)CC1,inactive: -2.29%,–
CCOC(=O)CC(=O)CSc1nc2ccccc2c(=O)n1-c1ccc(C(=O)NCCOC)cc1,inactive: 0.193%,–
COC(=O)c1ccc(C(=O)OC)c(NC(=O)N2CC3CCCN3c3ccccc32)c1 (stereo not given),inactive: -9.66%,–
CCN1CCN(c2nnc(-n3cccc3C(=O)Nc3cccc(OC)c3)s2)CC1,inactive: 8.14%,–
O=C(Cn1ccn(-c2ccc(F)c(F)c2)c(=O)c1=O)c1ccc(F)cc1,inactive: 0.85%,–
CC(C)c1nn2c(=O)cc(COC(=O)CNC(=O)c3ccccc3Cl)nc2s1,inactive: -25.8%,–
CCn1c(=O)sc2cc(NC(=O)c3cccc(OC)c3)ccc21,inactive: -12.7%,–
COc1ccc(C2CC(=O)c3c(C)nc(N4CCN(C=O)CC4)nc3C2)c(OC)c1 (stereo not given),inactive: 22%,–
Cc1nnc(NC(=O)CSc2nccn2-c2ccc(Cl)cc2)s1,inactive: -7.71%,–
CCOc1ccc(Cn2c(CNS(=O)(=O)c3c(C)cc(C)cc3C)nc3cccnc32)cc1,inactive: 2.81%,–
O=C(Cn1cc(C(=O)C2CC2)c2ccccc21)Nc1ccc(Br)cc1,inactive: 1.15%,–
COc1ccccc1N1CCN(c2ccc(-c3nc(-c4ccccc4)no3)cc2[N+](=O)[O-])CC1,inactive: 6.88%,–
CC(=O)c1ccc(NC(=O)CCCc2nc(-c3cccc(C)c3)no2)cc1,inactive: 8.4%,–
Cc1ccc(C)c(Cn2c(=O)n(CCCCCC(=O)NCc3ccc4c(c3)OCO4)c(=O)c3sccc32)c1,inactive: -2.83%,–
CCOC(=O)c1ccc(CN(Cc2ccccc2C)S(=O)(=O)c2ccc(F)c(C(=O)Nc3cccc(OC)c3)c2)cc1,inactive: -1.22%,–
Cc1c(C)n(Cc2ccc(F)cc2)c2ccc(C(=O)Nc3ccc(Cl)cc3)cc12,inactive: -9.82%,–
O=C(CC1C(=O)N(c2ccccc2)C(=O)N1Cc1ccc2c(c1)OCO2)Nc1ccccc1 (stereo not given),inactive: 3.68%,–
O=C1CC(c2nnc(Cc3ccccc3Cl)o2)CN1c1ccccc1 (stereo not given),inactive: -1.56%,–
Cc1ccc(-c2cc3c(n2-c2ccccc2F)CC(C)(C)CC3=O)cc1,inactive: -3.75%,–
COc1ccc(C)cc1NC(=O)N1CCN(c2cc(-c3noc(C)n3)ccc2C)CC1,inactive: -7.56%,–
O=C(CN1C(=O)CSc2ccc(S(=O)(=O)N3CCCC3)cc21)NCc1ccc(Cl)cc1,inactive: 10.5%,–
COc1ccc(NC(=O)CN2C(=O)COc3ccc(S(=O)(=O)N4CCCCC4)cc32)cc1Cl,inactive: 8.47%,–
